Laboratory results from PubChem BioAssay AID686978 (National Center for Advancing Translational Sciences (NCATS), 2013).
Values joined by “and” are separate entries in the source; they are usually repeats but may differ in a detail not shown here. Identical values can stand only once. Among all 420,000 compounds or so, about 64,000 (15%) were called active. Inconclusive results, whose numbers are uncertain, are shown with a selection of clear calls. Calls come from the whole dose curve; as a rule, active = well fitted inhibition curve with a large enough effect; inconclusive = small, poorly fitted or top-dose-only effect; inactive = flat fitted curve, though single readings scatter. Potencies of inconclusive entries are left out as doubtful fits.

Experiment: qHTS for Inhibitors of human tyrosyl-DNA phosphodiesterase 1 (TDP1): qHTS in cells in absence of CPT; note: nearly all actives have a fitted effect of over 55% in size
Details: DT40 Tdp1-/- hTDP1 cells, no CPT, ATP luminescence, 48 h; activity change, negative = growth inhibition: at 46.2 µM (top of the series)
How it was run: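 Stably hTDP1-transfected Tdp1-null chicken DT40 cells were treated with library compounds minus camptothecin and grown for at least 48 hr at 37 °C, after which cellular ATP was quantified by luminescence.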
% is set by controls: 0 for no effect and ±100 for the full control effect; potency is the fitted concentration of half-maximal effect; tags give direction and shape of the fitted curve.

| Compound | Potency | activity change, negative = growth inhibition |
| --- | --- | --- |
| CCOc1c(Br)cc(C2CC(=O)Nc3cc(OC)c(OC)cc32)cc1OC (configuration not stated) | active: 23.1 µM | – |
| CC(C)NC(=O)C1CCN(C2CCN(Cc3nc4ccccc4s3)CC2)CC1 | inactive | – |
| CNc1nc(Cl)c(SC)c(N2CCOCC2)n1 | inconclusive [inhibitor, partial curve, poor fit] | – |
| COc1ccc(Cl)cc1NC(=O)CN(C)C(=O)Cc1n[nH]c(=O)c2ccccc12 | inactive | – |
| Cc1ccc2onc(CC(=O)O)c2c1 | inactive | – |
| COc1cccc(-c2nn(-c3ccccc3)cc2C(=O)n2nnc3ccccc32)c1 | inconclusive [inhibitor, single point] | – |
| Cc1ccc2[nH]c(=O)c(CN(Cc3ccccc3)C(=S)NCCCN(C)C)cc2c1 | inconclusive [inhibitor, single point] | – |
| O=C(NCCCN1CCOCC1)c1sc2ccccc2c1Cl | – | inconclusive: -30.9% [inhibitor] |
| N#C/C(=C/c1ccc2c(c1)OCO2)C(=O)Nc1ccc(O)cc1 | active: 11.6 µM | – |
| Cc1cc(-c2nn(-c3ccccc3F)cc2CN2CCCC(O)C2)c(C)s1 (configuration not stated) | inconclusive [inhibitor, single point] | – |
| Cc1nn(Cc2ccccc2)c2c1C(c1cccc(Cl)c1)C(C#N)=C(N)O2 (configuration not stated) | active: 18.4 µM | – |
| Cc1cccc(C)c1NC(=O)C1(C)CCC(=O)N1CCCn1ccnc1 (configuration not stated) | inactive | – |
| CCc1ccccc1N1CCN(S(=O)(=O)c2cc(OC)ccc2OC)CC1 | inactive | – |
| CCOC(=O)C1CCCN(C(=O)c2cc(-c3ccncc3)nc3ccccc23)C1 (configuration not stated) | inactive | – |
| COc1cccc(-c2nc3c(C#N)c[nH]n3c2NC2CCCC2)c1OC | inconclusive [inhibitor, single point] | – |
| CCCN(CCC)C(=O)COc1cc(=O)n(CC)c2ccccc12 | inconclusive [inhibitor, single point] | – |
| COc1ncc(-c2ccc3c(c2)S(=O)(=O)c2cccc(C(=O)NCc4ccco4)c2C3=O)cn1 | inconclusive [inhibitor, partial curve, poor fit] | – |
| CC1CCCCN1C(=O)c1ccc2c(c1)N(Cc1ccc(F)cc1)C(=O)c1ccccc1S2(=O)=O (configuration not stated) | active: 18.4 µM | – |
| Cc1cc(C)cc(C(O)c2ncc(-c3ccccc3C(F)(F)F)[nH]2)c1 (configuration not stated) | – | inconclusive: -30.5% [inhibitor] |
| COc1cccc(-n2c(C)nc3cc(C(=O)O)ccc32)c1 | inactive | – |
| COc1ccccc1Cn1c(=O)[nH]c2cccnc21 | inactive | – |
| CN(NC(=O)c1ccccc1F)c1nc(C(F)(F)F)nc2ccccc12 | active: 0.206 µM | – |
| CCOc1ccccc1C(=O)Nc1c[nH]c(=O)[nH]c1=O | inconclusive [inhibitor, partial curve] | – |
| C=CCn1c(O)c(C=Nc2ccc(CN3CCCCC3)cc2)c(=O)[nH]c1=S | inconclusive [inhibitor, single point] | – |

| Compound | Potency | activity change, negative = growth inhibition |
| --- | --- | --- |
| Cc1ccc(S(=O)(=O)N(CC(=O)Nc2cccnc2)c2cccc(Br)c2)cc1 | active: 16.4 µM | – |
| COc1ccc(NC(=O)CN(C)C(=O)/C=C/c2cn(-c3ccccc3)nc2-c2ccc(F)cc2)cc1 | active: 23.1 µM | – |
| Cc1ccccc1C1=NC(c2ccc(F)cc2F)ON1 (configuration not stated) | inconclusive [inhibitor, single point] | – |
| CCCCCCCCCc1conc1C(=O)CP(=O)(OC)OC | inconclusive [inhibitor, single point] | – |
| C[C@H]1CN([C@@H](C)CO)C(=O)Cc2cc(NC(=O)CCC(F)(F)F)ccc2O[C@H]1CN(C)S(=O)(=O)c1ccc(F)cc1 | active: 6.51 µM | – |
| Cc1ccccc1-c1cc(Nc2ccc(F)cc2)ncn1 | inconclusive [inhibitor, single point] | – |
| Cc1nc2ccccc2c2oc(C(=O)NCC3CCCO3)cc12 (configuration not stated) | inconclusive [inhibitor, partial curve] | – |
| CCCn1c(=O)[nH]c(=O)c2c(C(=O)OCC)cc(-c3cccs3)nc21 | inconclusive [inhibitor, single point] | – |
| CC1CCN(S(=O)(=O)c2ccc(NC(=O)CCN3C(=O)c4ccccc4C3=O)cc2)CC1 | inactive | – |
| COc1cc(S(=O)(=O)Nc2cccnc2)ccc1Cl | inactive | – |
| CC(C)CCn1c(CN2CCN(c3cccc(Cl)c3)CC2)nc2c1c(=O)n(C)c(=O)n2C | active: 23.1 µM | – |
| CCN(CC)C(=O)CNC(=S)N(CCCN1CCOCC1)Cc1cccs1 | inactive | – |
| Oc1ccc(-c2[nH]ncc2-c2ccc(Br)cc2)c(O)c1 | inconclusive [inhibitor, partial curve, poor fit] | – |
| Cc1c(/C=C/C(=O)c2ccc(Cl)s2)cnn1C | inconclusive [inhibitor, single point] | – |
| CCN(C(=O)CSc1nnc(-c2cc3occc3n2C)n1-c1ccccc1C)c1cccc(C)c1 | inconclusive [inhibitor, partial curve] | – |
| Cc1noc(C)c1NC(=O)N(C)C[C@@H]1Oc2ncc(Br)cc2C(=O)N([C@@H](C)CO)C[C@H]1C | inactive | – |
| Cc1nn(-c2ccccc2)c(C)c1NC(=O)COc1cc(F)ccc1[N+](=O)[O-] | inconclusive [inhibitor, single point] | – |
| COc1ccc(Cc2nnc(NC(=O)CSc3ccc(C)cc3)s2)cc1 | inconclusive [inhibitor, partial curve, poor fit] | – |
| O=C(Nc1ccc(S(=O)(=O)Nc2cnc3ccccc3n2)cc1)c1cc(F)c(F)cc1Cl | inconclusive [inhibitor, partial curve, poor fit] | – |
| COCCNc1nc(N2CCCCC2)c2cnn(C)c2n1 | inconclusive [inhibitor, single point] | – |
| O=C(Nc1ccc(Nc2ccccc2)cc1)c1ccc(Cl)cc1 | active: 13 µM | – |
| COCCN(C(=O)CCSc1ccc(F)cc1)c1c(N)n(Cc2ccccc2)c(=O)[nH]c1=O | inactive | – |
| CCc1ccc(CNC(=O)CSc2cc(=O)n(CC)c3ccccc23)cc1 | active: 8.2 µM | – |
| O=C1C(Cl)=C(NCCCO)C(=O)c2ccccc21 | active: 18.4 µM | – |

| Compound | Potency | activity change, negative = growth inhibition |
| --- | --- | --- |
| COc1cc(N(C)C)c(OC)cc1/C=C1\Cc2ccccc2C1=O | active: 11.2 µM | – |
| O=C(Nc1ccc(C(=O)O)cc1)/C(=C\c1ccc2c(c1)OCO2)NC(=O)c1ccco1 | inactive | – |
| Cc1ccc(CNC(=O)c2oc3ccc(S(=O)(=O)N4CCC5(CC4)OCCO5)cc3c2C)cc1 | inconclusive [inhibitor, partial curve] | – |
| COc1ccc(N2CCN(C(=O)c3ccc4c(=O)n(CCc5ccc(OC)c(OC)c5)c(=O)[nH]c4c3)CC2)cc1 | active: 2.59 µM and active: 16.4 µM | – |
| O=S(=O)(c1ccc(Cl)cc1)N1CCCC(c2nc(-c3ccc(F)cc3)no2)C1 (configuration not stated) | inconclusive [inhibitor, single point] | – |
| c1ccc(NCc2nc3ccccc3n2CCOc2ccccc2)cc1 | inconclusive [inhibitor, single point] | – |
| Cc1ccc(C(C(=O)NC(C)(C)C)N(Cc2ccc3c(c2)OCO3)C(=O)c2ccc(CN3CCOCC3)o2)o1 (configuration not stated) | inconclusive [inhibitor, single point] | – |
| COc1ccc(-n2c(=S)[nH]c3cc(C(=O)NCc4cccnc4)ccc3c2=O)cc1 | inactive | – |
| CCc1ccc(OCC(=O)Oc2ccc([N+](=O)[O-])cc2)cc1 | inactive | – |
| COc1ccc(N(CC(=O)N2CCN(Cc3ccccc3)CC2)S(C)(=O)=O)cc1Cl | inconclusive [inhibitor, single point] | – |
| Cc1cc(C)cc(N(C(=O)c2ccco2)C(C(=O)NC2CCCC2)c2ccncc2)c1 (configuration not stated) | inactive | – |
| CC(C)(C)Cc1c(-c2ccc(Br)cc2)nc2ccc(Br)cn12 | inconclusive [inhibitor, single point] | – |
| CCc1nn(CC(=O)N(CC)Cc2ccccc2)c(=O)c2cc3occc3n12 | active: 16.4 µM | – |
| COc1ccc(F)cc1C(=O)C1CCCN(C(=O)C2=C(C)OCCO2)C1 (configuration not stated) | inactive | – |
| CCc1ccc(S(=O)(=O)Nc2ccc(Br)cn2)cc1 | inconclusive [inhibitor, single point] | – |
| CC(=O)OCCNc1cc(SC(C)C)c2nonc2c1[N+](=O)[O-] | inconclusive [inhibitor, single point] | – |
| CC1=CCC[C@H]2[C@H](C1)C(=O)C[C@@H](C)[C@]2(C)CC/C(=C/CO)CO | inconclusive [inhibitor, single point] | – |
| CCCCS(=O)(=O)Nc1ccc2c(c1)ncn2C1CCCCC1 | inconclusive [inhibitor, partial curve] | – |
| CN(C)C(=S)NCc1ccccc1 | active: 10.3 µM | – |
| CC(=O)O[C@@H]1C(=O)O[C@@H]2[C@H]1OC(=O)[C@@H]2OC(C)=O | inactive | – |
| Cc1c(Cl)cccc1NC(=O)C1CC2CCC1C2 (configuration not stated) | inconclusive [inhibitor, partial curve, poor fit] | – |
| O=C(CSc1nc(=O)n(CCCN2CCOCC2)c2c1CCCC2)Nc1cccc(Cl)c1 | inconclusive [inhibitor, partial curve] | – |
| CC(C)(C)c1ccc(OCCCC(=O)NC2=NCCS2)cc1 | inconclusive [inhibitor, single point] | – |
| CCc1ccc(NS(=O)(=O)c2ccc3[nH]cc(C(=O)NCc4ccc(C)cc4)c(=O)c3c2)cc1 | inconclusive [inhibitor, single point] | – |
